Assay results published in PubChem BioAssay AID488969 (Vanderbilt High Throughput Screening Facility, 2010).
In all, about 110,000 compounds were measured (“z-score”: median about -0.1, highest 2% from about 2 on). Some of the results follow. The source made the active and inactive calls.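 How the source made its calls: active means z-score in the third read window above 3 or below -3; inactive means the rest.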

target: Metabotropic glutamate receptor 8 (Rattus norvegicus) (UniProt P70579); assay: mGluR8 Gi/Go-coupled signaling modulation – cell-based, rat, thallium flux, HTS, primary screen (AID 488969); settings: HEK293 rat mGluR8, GIRK (G protein-gated inwardly rectifying potassium channel) thallium flux, FluoZin2; at 10 µM; stronger effect = higher value; submaximal glutamate (EC20) added with thallium
Sequence of UniProt P70579 (P70579 whole entry, looked up): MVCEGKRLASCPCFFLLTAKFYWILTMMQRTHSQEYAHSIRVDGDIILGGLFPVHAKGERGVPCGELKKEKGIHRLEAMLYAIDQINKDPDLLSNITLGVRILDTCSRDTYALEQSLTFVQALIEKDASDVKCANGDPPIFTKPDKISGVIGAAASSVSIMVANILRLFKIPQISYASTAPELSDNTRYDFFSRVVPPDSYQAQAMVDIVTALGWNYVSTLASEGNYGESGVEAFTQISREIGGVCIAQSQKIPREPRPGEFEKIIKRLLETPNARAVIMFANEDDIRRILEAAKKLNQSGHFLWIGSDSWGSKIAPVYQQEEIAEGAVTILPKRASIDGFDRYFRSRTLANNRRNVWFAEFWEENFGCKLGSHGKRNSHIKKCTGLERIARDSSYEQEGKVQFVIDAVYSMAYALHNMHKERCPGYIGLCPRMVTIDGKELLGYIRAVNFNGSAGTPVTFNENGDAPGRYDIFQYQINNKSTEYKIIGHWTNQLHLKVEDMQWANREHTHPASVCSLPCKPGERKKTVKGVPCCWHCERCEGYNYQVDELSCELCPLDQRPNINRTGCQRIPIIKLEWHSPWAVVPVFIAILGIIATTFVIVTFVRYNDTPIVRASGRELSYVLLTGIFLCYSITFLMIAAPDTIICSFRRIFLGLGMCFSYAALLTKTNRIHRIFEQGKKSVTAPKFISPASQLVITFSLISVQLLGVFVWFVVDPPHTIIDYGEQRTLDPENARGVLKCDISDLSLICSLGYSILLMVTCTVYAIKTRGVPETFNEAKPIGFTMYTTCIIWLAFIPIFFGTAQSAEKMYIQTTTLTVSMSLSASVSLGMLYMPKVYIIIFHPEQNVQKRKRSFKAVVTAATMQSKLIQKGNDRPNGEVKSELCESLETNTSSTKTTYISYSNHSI

SMILES | z-score
O=C(c1ccc(N2C(=O)C3C4c5ccccc5C(c5ccccc54)C3C2=O)cc1)N1CCOCC1 (centres undefined) | -0.32
Clc1cccc2sc(N3CCCC3)nc12 | -0.417
O=C(c1cc2ccccc2oc1=O)N1CCN(c2ccc(N3CCOCC3)nn2)CC1 | -0.215
Cc1cc(Cl)ccc1Nc1ncccc1C(N)=O | -0.194
COc1ccc2[nH]c(C(=O)O)c(NS(=O)(=O)c3ccc(Cl)s3)c2c1 | 0.0834
CCOC(=O)c1c(C)n(-c2ccc(C)cc2)c2c(C(C(C)=O)C(=O)O)c(Br)c(O)c(O)c12 (centres undefined) | -0.17
COc1ccccc1N1CCN(C(=O)CSc2nnc3c4ccccc4n(CC(=O)O)c3n2)CC1 | -0.165
CC(=O)Nc1ccc(S(=O)(=O)NCc2ccc(C)cc2)cc1 | 0.235
COc1cc(C(=O)NCCC(=O)NCc2ccc3c(c2)OCO3)cc(OC)c1OC | -0.291
Cc1ccc2c(c1)-c1c(ssc1=S)C(C)(C)N2C(=O)c1ccco1 | 0.0281
C=CCSc1nc(N)c(C(=O)Nc2ccccc2)cc1C#N | -0.147
Cc1ccc(OCCCC(=O)NC(C)c2ccccc2)cc1 (centres undefined) | 0.104
Cc1ccc(S(=O)(=O)NC2c3cccc4cccc(c34)C2Sc2nc(C)cc(C)n2)cc1 (centres undefined) | -0.244
COCCN1CCN(c2cc(-c3ccccc3)nc3cc(-c4cccc(F)c4)nn23)CC1 | 0.147
Cc1nnc(SCCn2c(N3CCCCC3)nc3c2c(=O)n(C)c(=O)n3C)s1 | -0.0165
O=C(COC(=O)C1CC(=O)N(c2nc(-c3ccccc3)cs2)C1)c1ccccc1 (centres undefined) | -0.136
COc1cccc(NC(=O)NCCCSC2CCCCC2)c1 | active: 4.47
COc1ccc(-c2ccc(Nc3ccc(S(=O)(=O)N4CCCC4)cc3)nn2)cc1OC | -0.856
CCN(CC)CC#CC(C)(C)OC(C)=O | 0.051
O=C(NCC12CC3CC(CC(C3)C1)C2)c1nn2cccnc2c1Cl | -0.402
Clc1cc(Cl)cc(Nc2ncn[nH]2)c1 | -0.0414
COC(=O)c1ccc(C(=O)OC)c(NC(=O)c2cnc3n(c2=O)CCS3)c1 | -0.415
Cc1ccc(C)c(OCC(=O)NCCNC(=O)COc2cc(C)ccc2C)c1 | -0.05

SMILES | z-score
CCc1cc2c(=O)c(-c3nc4ccccc4[nH]3)coc2cc1OC(=O)N1CCOCC1 | -0.243
Cc1ccc2nsnc2c1S(=O)(=O)NCc1ccncc1 | -0.302
Cc1oc2cc(O)ccc2c(=O)c1Oc1ccccc1 | 0.344
O=C1c2cccc(OCc3ccc(F)cc3)c2CCN1Cc1ccc(F)cc1 | 0.17
CC(=O)c1c(C)[nH]c(C(=O)CSc2nnc(-c3ccccc3)o2)c1C | -0.229
COc1ccccc1CNC(=O)COC(=O)c1n[nH]c2ccccc12 | -0.985
O=C(O)c1cc2ccccc2c(=O)s1 | -0.259
CC(CC(=O)Nc1ccc(C(N)=O)cc1)c1ccccc1 (centres undefined) | -1.46
COC(=O)C(C(=O)OC)N1C(=O)CCC1=O | 0.512
CC(C)C(=O)Nc1ccc(Cc2ccc(NC(=O)C(C)C)c(O)c2)cc1O | -0.234
CC1=NN(c2ccccc2)C(=O)/C1=C\N1CC(C)OC(C)C1 (centres undefined) | -0.187
Cc1ccc(S(=O)(=O)/N=C2/C=C(C3C(=O)CC(C)(C)CC3=O)C(=O)c3ccccc32)cc1 | 0.359
Cc1cc2ccccc2c(=O)n1CC(=O)NCC(=O)N1CCCC1 | -0.263
Cc1cc(C)nc(Sc2c(F)c(F)c(C(F)(F)F)c(F)c2F)n1 | 0.0241
COc1ccc(Cc2nnc(NC(=O)CSc3ccc(Cl)cc3)s2)cc1OC | 0.255
C/C(=N\N=C\c1ccccc1)c1nnn(-c2nonc2N)c1C | -0.155
CCCCn1c(-c2csc3c2CCC(C)C3)n[nH]c1=S (centres undefined) | active: 7.55
Cc1ccc(C)c(OCCCCn2ccnc2)c1 | 0.0554
O=C1C2CCCN2C(c2ccc(F)cc2)N1c1nccs1 (centres undefined) | 0.014
CC(=O)Nc1ccc(S(=O)(=O)N2CCNC(=O)CC2)cc1 | 0.155
CCN(CC)S(=O)(=O)c1cccc(-c2nnc(SCC(=O)NC3CCCCCC3)n2N)c1 | -1.15
CCC(C)N1C(=O)S/C(=C/c2ccc(Sc3nc4ccccc4[nH]3)o2)C1=O (centres undefined) | -0.59
Cc1ccc(/C=N/c2sc3c(c2C#N)CCCCC3)o1 | -0.0448

SMILES | z-score
CC1(C)Cc2c(cnn2-c2ccccc2)C(=O)/C1=N\NC(=O)c1ccccc1 | 0.0883
COc1ccc(N(CC(=O)NCCC2=CCCCC2)S(C)(=O)=O)cc1OC | 0.274
CCOC(=O)c1nn(-c2ccccc2)c(=O)c(C#N)c1C | -0.186
Cc1cc(Nc2ccc(C(=O)O)cc2)n2nc(C)nc2n1 | 0.915
CCC(C)NC(=O)CSc1nc2n[nH]c(C)c2c(=N)n1-c1ccc(OC)cc1 (centres undefined) | 0.58
CC1(C(=O)O)CCC(C(=O)N2CCOCC2)C1(C)C (centres undefined) | -0.108
CC(=O)NC1CSCC1OC(C)=O (centres undefined) | -0.019
COc1cccc(NS(=O)(=O)c2ccc(NC(C)=O)cc2)c1 | -0.261
CC1CCN(c2nc(-c3ccc(F)cc3)cc(C(F)(F)F)n2)CC1 | -0.266
COc1ccc(NC(=O)CSc2nc(NS(=O)(=O)c3ccc(C)cc3)cc(=O)[nH]2)cc1 | -0.232
O=C(Nc1ccc(S(=O)(=O)N2CCc3ccccc32)cc1)c1ccc2c(c1)OCO2 | -1.01
CCOC(=O)Cc1csc(NC(=O)c2c(-c3c(Cl)cccc3Cl)noc2C)n1 | -0.498
Cc1ccc(N(CC(=O)Nc2ccc(-c3nc4ccc(C)cc4s3)cc2)S(C)(=O)=O)cc1 | -0.0874
NC(=O)C(c1ccc(Cl)cc1)c1ccc(Sc2ccccc2)nn1 (centres undefined) | -0.154
CC1CC(C)(C)NC(=S)N1CCCC(=O)N1CCN(c2ccccc2F)CC1 (centres undefined) | 0.957
Cc1ccc(S(=O)(=O)Cn2nnnc2C(c2ccccc2)N2CCN(c3ccccc3)CC2)cc1 (centres undefined) | -0.0633
O=C(Oc1ccc(N(Cc2cccs2)C2=NS(=O)(=O)c3ccccc32)cc1)c1ccco1 | -0.18
Cc1ccc(NS(=O)(=O)c2ccc(CCC(=O)N3CCOCC3)cc2)cc1 | -0.0297
CCCCC(=O)OCC(=O)c1[nH]c(C)c(C(=O)OCC)c1C | -0.205
O=C(O)CN1CCN(Cc2ccccc2Cl)C1=O | -0.0718
O=C(/C=C/c1ccc(Cl)cc1)N(Cc1ccccc1)C1CCS(=O)(=O)C1 (centres undefined) | -0.709
Cc1cc([N+](=O)[O-])c(NCCCCCCO)c([N+](=O)[O-])c1 | -0.226
N#CC(=C=[N-])c1nc2ccccc2nc1-[n+]1ccccc1 | -0.219
